Experimental data reported in paper PMC4336329 (PLoS ONE, 2015).
In all, about 310,000 compounds went through this assay and about 2,200 (0.71%) showed an effect of 50% or more. The effect is printed as a negative number. The list shows a part of the results.

Molecular target: human ether-à-go-go-related gene (hERG) potassium channel (human, UniProt Q12809)
Experiment: primary screen, population patch clamp on CHO cells stably expressing hERG

human ether-à-go-go-related gene (hERG) potassium channel, sequence (Q12809 whole entry, looked up): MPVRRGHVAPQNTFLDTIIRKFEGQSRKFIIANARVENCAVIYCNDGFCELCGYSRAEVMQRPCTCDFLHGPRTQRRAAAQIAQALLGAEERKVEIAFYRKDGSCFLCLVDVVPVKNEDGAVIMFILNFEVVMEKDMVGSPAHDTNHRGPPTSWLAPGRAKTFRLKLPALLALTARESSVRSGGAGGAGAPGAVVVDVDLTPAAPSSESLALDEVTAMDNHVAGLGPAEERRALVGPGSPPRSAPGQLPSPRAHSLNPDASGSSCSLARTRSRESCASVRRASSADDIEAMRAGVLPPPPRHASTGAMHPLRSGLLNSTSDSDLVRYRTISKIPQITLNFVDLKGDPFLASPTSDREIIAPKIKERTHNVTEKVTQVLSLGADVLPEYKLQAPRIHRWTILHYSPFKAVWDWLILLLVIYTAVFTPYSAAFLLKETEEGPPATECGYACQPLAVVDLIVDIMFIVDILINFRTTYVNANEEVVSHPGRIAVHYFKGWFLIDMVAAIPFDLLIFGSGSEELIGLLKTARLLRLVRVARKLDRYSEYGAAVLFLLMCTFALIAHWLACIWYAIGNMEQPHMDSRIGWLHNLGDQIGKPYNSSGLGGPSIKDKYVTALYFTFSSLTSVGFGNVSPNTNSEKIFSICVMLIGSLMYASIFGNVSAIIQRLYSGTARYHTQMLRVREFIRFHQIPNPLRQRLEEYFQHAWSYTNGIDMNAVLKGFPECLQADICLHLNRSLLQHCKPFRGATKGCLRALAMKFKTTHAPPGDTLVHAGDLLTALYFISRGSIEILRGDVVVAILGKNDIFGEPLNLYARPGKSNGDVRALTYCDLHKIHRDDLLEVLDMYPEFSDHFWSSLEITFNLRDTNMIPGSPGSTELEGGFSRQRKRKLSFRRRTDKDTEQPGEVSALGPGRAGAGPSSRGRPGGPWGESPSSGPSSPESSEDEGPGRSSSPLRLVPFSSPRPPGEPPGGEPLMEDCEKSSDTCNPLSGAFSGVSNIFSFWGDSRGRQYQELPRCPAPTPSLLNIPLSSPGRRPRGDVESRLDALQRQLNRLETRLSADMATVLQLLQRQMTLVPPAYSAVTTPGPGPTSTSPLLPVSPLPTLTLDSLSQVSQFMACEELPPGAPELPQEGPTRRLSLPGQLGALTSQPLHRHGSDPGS

Row | SMILES | hERG current change (%, negative = inhibition) at 1uM
1 | O=S(=O)(c1cccc2nsnc12)N1CCCC1 | 4.49%
2 | Cc1c(C(=O)N2CCNCC2)oc2ccccc12.Cl | 16.5%
3 | CC1(C)Cc2ccccc2-c2nnc(-c3ccc4ccccc4n3)n21 | 7.4%
4 | COc1cccc(CN2CCN(C(=O)c3ccco3)CC2)c1OC | 1.41%
5 | O=C(Nc1ccc(S(=O)(=O)NC2=NCCCCC2)cc1)c1ccc(Cl)cc1Cl | 12%
6 | Cc1ccc(NC(=O)Nc2nc(-c3ccc(C)s3)cs2)cc1 | 8.43%
7 | Cn1c(O)c(/C=C2\C=Nc3ccccc32)c(=O)n(C)c1=O | 8.77%
8 | O=C(CSc1nccc(=O)[nH]1)c1c[nH]c2ccccc12 | 6.07%
9 | COc1ccc(Br)c(C(=O)NC2CCCC2)c1 | 13.6%
10 | COc1cc2c(cc1OC)CN(C(=O)CCCOc1ccc(Cl)cc1Cl)CC2 | 15.6%
11 | CCN(CC)S(=O)(=O)c1cccc(NC(=O)COC(=O)CCC(=O)c2ccc(F)cc2)c1 | 13.5%
12 | COc1ccc(C2(O)CN(c3ccc(C)cc3)C3=[N+]2CCCC3)cc1.[Br-] (centres unmarked) | 0.777%
13 | CCn1c(SCC(=O)O)nnc1-c1ccc(S(=O)(=O)N2CCCC2)cc1 | 13.3%
14 | CC(C)Cc1nnc(NS(=O)(=O)c2ccc([N+](=O)[O-])cc2)s1 | 10.4%
15 | COC(=O)C[C@H]1c2ccc(C(F)(F)F)cc2S(=O)(=O)N1Cc1ccccc1 | -0.0746%
16 | CC(=O)Nc1ccc(-c2sc(Nc3ccccc3)n[n+]2C)cc1.[Cl-] | 14.9%
17 | Cc1ccc(C2(C)NC(=O)N(CC(=O)Nc3ccc4c(c3)CCC4)C2=O)cc1 (centres unmarked) | 10.8%
18 | O=C(CCN1C(=O)c2ccccc2S1(=O)=O)NCc1ccco1 | 8.38%
19 | N#Cc1cccc(NC(=O)Cn2cnc(S(=O)(=O)N3CCOCC3)c2)c1 | 9.81%
20 | CCCCN1Cc2cc(C(=O)c3cc(OC)ccc3O)cnc2NC1=O | 4.49%
21 | COc1ccc(-c2c(-c3cccc(C)c3)oc3ccc(-c4ccc5c(c4)OCO5)cc23)cn1 | 2.93%
22 | Cc1cc(NC(=O)CSc2nnc(-c3ccoc3C)o2)no1 | 8.59%
23 | O=C(COc1ccc(Cl)cc1Cl)Nc1c(-c2cccs2)nc2ccccn12 | 14.7%

Row | SMILES | hERG current change (%, negative = inhibition) at 1uM
24 | COCCN(C(=O)CCC(=O)Nc1cc(C)on1)C(C(=O)NC(C)(C)C)c1ccc(OC)cc1 (centres unmarked) | 7.5%
25 | CC1=C(C(=O)OCCOC(C)C)C(c2cccnc2)C2=C(CCCC2=O)N1 (centres unmarked) | 16.4%
26 | COC(=O)N/N=C\c1cccc(OC(=O)c2cccs2)c1 | 7.11%
27 | O=C(c1cccs1)N1CCN=C1SCc1ccccc1F | 6.28%
28 | O=C(CCN1CCCC1)c1cccs1 | 13%
29 | COC(=O)c1c(SCC(=O)NC2CCCCC2)[nH]c2ccccc2c1=O | 8.82%
30 | O=C(c1ccco1)N1CCN(c2ncnc3c2oc2ccccc23)CC1 | -18.1%
31 | O=C1CCCc2c1[nH]c1ccc(CN3CCCCC3)cc21 | -1.95%
32 | CNC(=O)COC(=O)c1ccc(NS(=O)(=O)c2ccc3c(c2)OCCO3)cc1 | 10.4%
33 | COc1ccccc1C(=O)NCC(=O)NCCCN1CCOCC1 | 9.26%
34 | COc1ccc(N(C(=O)CCl)C(C(=O)NC2CCCCC2)c2cccnc2)cc1 (centres unmarked) | 15.4%
35 | COc1ccc(C(CNC(=O)/C=C/c2c(Cl)nc3ccccn23)N(C)C)cc1 (centres unmarked) | 9.35%
36 | O=C(CSc1nnc(NC(=O)c2ccc(F)cc2)s1)NC1CCCC1 | 11.3%
37 | COc1cc2c(cc1OC)C(c1ccc3c(c1)OCO3)C1=C(CC(C)(C)CC1=O)N2 (centres unmarked) | 2.28%
38 | Cc1ccc(/C=C(/C#N)c2nc(CCN3C(=O)c4ccccc4C3=O)cs2)cc1 | 23.9%
39 | Cc1ccccc1CNC(=O)c1ccccc1C | 14.4%
40 | Cc1cccc(-n2nc3c(c2NC(=O)CCCl)CSC3)c1 | 9.01%
41 | O=[N+]([O-])c1ccc(NC(=S)N2CCc3ccccc32)cc1 | 8.05%
42 | Cc1[nH]c(C(=O)O)c(C)c1C(=O)OC(C)C | -1.89%
43 | COC(=O)c1ccc(/C=N/N2CCN(Cc3ccccc3)CC2)cc1 | 9.24%
44 | O=C(NCCSCc1ccccc1)c1cc(S(=O)(=O)N2CCOCC2)ccc1F | 5.76%
45 | CC(C)CCNC(=O)[C@H](CC(C)C)NC(=O)[C@H]1O[C@@H]1C(=O)O | 29.2%
46 | O=C(COc1ccccc1)N=C1SC2CS(=O)(=O)CC2N1c1ccc(F)cc1 (centres unmarked) | 13.1%

Row | SMILES | hERG current change (%, negative = inhibition) at 1uM
47 | O=C(O)C(=O)O.O=C(c1ccncc1)N1CCN(C2CCCCC2)CC1 | 5.44%
48 | CC(OC(=O)c1ccc(Br)o1)C(=O)Nc1ccc2c(c1)OCCO2 (centres unmarked) | 4.49%
49 | O=S1(=O)CCC(NCC2CCCO2)C1 (centres unmarked) | 12.9%
50 | CSc1ccccc1OCc1cc(C(=O)N2CCC(Oc3cccnc3)CC2)no1 | 4.42%
51 | COc1ccc(S(=O)(=O)N(C)CC(=O)NCCC2=CCCCC2)cc1 | 18%
52 | Cc1ccc(NS(=O)(=O)c2cccc3cccnc23)c(Cl)c1 | 13.3%
53 | Cc1cccc(NC(=O)CSc2nc(N)c(NC(=O)c3cccs3)c(=O)[nH]2)c1C | 0.118%
54 | COc1ccc(-c2cc(C(F)F)n3ncc(C(=O)NCCCN4CCCC4=O)c3n2)cc1 | -9.38%
55 | CCCn1c(SCC(=O)Nc2ccccc2N2CCCCC2)nc2c1c(=O)n(C)c(=O)n2C | -6.7%
56 | Cc1ccc(S(=O)(=O)N(C)CC(=O)Nc2ccncc2)cc1 | 6.17%
57 | Cc1ccc(-c2c(C(=O)N3CCOCC3)oc(=O)c3ccccc23)cc1 | -1.75%
58 | CC(=O)N/N=C(\C)c1ccc2c(c1)OCCO2 | 12.9%
59 | COC(=O)CSc1nc(C2CC2)cc(C(F)(F)F)c1C#N | 8.84%
60 | O=c1[nH]c(C2CCN(S(=O)(=O)c3ccccc3C(F)(F)F)CC2)nc2c1nnn2Cc1cccc(F)c1 | 11.6%
61 | CCn1c(COc2ccccc2)nnc1SCC(=O)NC1CCCCC1 | 12%
62 | O=S(=O)(NCc1ccco1)c1cccc(S(=O)(=O)N2CCOCC2)c1 | 0.6%
63 | CSCC[C@H](NC(=O)N1CCn2c1nc1ccccc12)C(=O)NCc1ccc2c(c1)OCO2 | -5.71%
64 | CCN(C(=O)C(C)OC(=O)CCCNC(=O)c1ccc(Cl)cc1)c1ccccc1 (centres unmarked) | 2.98%
65 | COc1cc(/C=N/NC(=O)c2cc[n+]([O-])cc2)ccc1O | 14.4%
66 | Cc1[nH]nc2c1C(c1ccc(OC(=O)c3ccco3)cc1)C(C#N)=C(N)O2 (centres unmarked) | 18.7%
67 | Cc1cc(NS(=O)(=O)c2ccc(NC(=O)CCCOc3ccc(Cl)cc3)cc2)no1 | 14%
68 | Br.CCOc1ccc(N=c2scc(-c3ccc(OC)cc3)n2CCO)cc1 | 8.9%
69 | CC(=O)NNC(=O)c1cc2sccc2s1 | 8.59%

Row | SMILES | hERG current change (%, negative = inhibition) at 1uM
70 | S=c1[nH]nc(-c2cccc(Cl)c2)n1/N=C/c1ccco1 | 10.3%
71 | Cn1c(=O)c2cc3ccc(Cl)cc3nc2n(C)c1=O | 4.78%
72 | COC(=O)c1ccccc1NC(=O)/C=C/C(=O)O | -0.611%
73 | CC1Cc2ccccc2C(=O)N1 (centres unmarked) | 13.7%
74 | COc1ccc(C(=O)O/N=C(/C)c2cccs2)cc1 | 18.8%
75 | Cc1cc2c(OCC(O)CN3CCCCC3)cccc2[nH]1 (centres unmarked) | 17%
76 | COc1ccc(C2NC(c3ccc(OC)cc3)C(C)C(=O)C2C)cc1 (centres unmarked) | 8.8%
77 | Cc1cccn2c(=O)c(/C=C(\C#N)C(N)=O)c(N3CCCCCC3)nc12 | 8.25%
78 | Cc1cc(C)c(S(=O)(=O)Nc2ccc(O)c(Sc3ncn[nH]3)c2)c(C)c1 | -3.56%
79 | Cc1ccc(-c2ccc(/C=N/N3C(=O)C4C5C=CC(CC5)C4C3=O)o2)c([N+](=O)[O-])c1 (centres unmarked) | -0.364%
80 | CC(OC(=O)Cc1coc2cc3c(cc12)CCC3)C(=O)NC(N)=O (centres unmarked) | 9.58%
81 | O=C(COC(=O)c1ccc(O)cc1O)Nc1cccc2ccccc12 | -7.53%
82 | N#Cc1ccccc1CN1C(=O)S/C(=C/c2cccn2-c2ccc(C(=O)O)cc2)C1=O | 3.63%
83 | Cc1cc(/C=N/NC(=O)C(=O)NCc2ccccn2)c(C)n1-c1ccccc1 | -0.58%
84 | NC(=O)CSc1nnc(Cn2c(=O)sc3ccccc32)n1-c1ccccc1 | 1.49%
85 | Cc1ccc(NC(=O)C2CCCO2)cc1[N+](=O)[O-] (centres unmarked) | 3.24%
86 | COc1ccc(Cc2nnc(SCc3nc4ccccc4c(=O)[nH]3)o2)cc1 | 15.5%
87 | COc1ccc(OCC(O)Cn2c(=N)n(CCN3CCCCC3)c3ccccc32)cc1.Cl (centres unmarked) | -51.2%
88 | Cc1ccc2c(c1)N(CC(=O)Nc1c(C)cccc1C)C(=O)c1cccnc1O2 | 20.1%
89 | CC(=O)c1cccc(Nc2cc(C)nc3ccccc23)c1.Cl | -7.18%
